Consider one compound from patent EP0643964A2 (priority 1993, dated 1995).

The assay relates to acute viral A hepatitis. Conditions: a week later.

`CCN(CC)CC(=O)Nc1c(C)cccc1C` [lidocaine]: where the note is “4 patients, 5 ml 2% i.v. once a day 7 days”, the Jaundice entry was “disappearance of jaundice in those 2 patients who presented it”. Further, under “serum”, the Bilirubin level result is given as “decreased, but not to normal levels”; the “LDH, GOT, GPK, glucose and cholesterol values” is reported as “among those considered normal”.
